These results are taken from PubChem BioAssay AID463173 (ICCB-Longwood Screening Facility, Harvard Medical School, 2010).

Screen size: about 52,000 compounds; about 4,300 (8.3%) were called active. Rule as the data show it: active = survival mostly below about 52% (no sharp cut-off); inactive = mostly above about 56%. The list shows a part of the results.

The experiment deals with DeltatarO mutant. Nature of the experiment: S. aureus survival, RN4220 and DeltatarO strains – OD600, teichoic acid synthesis inhibitors, primary screen (AID 463173). The note with it: S. aureus RN4220 wild type/DeltatarO growth, OD600, 18 h, stronger effect = lower value, screened at 18.75 µg/mL (by protocol).
As to `CCCc1nc(SCc2cc(=O)c3ccc(C)c(C)c3[nH]2)n[nH]1`, the survival is inactive: 107%.
With `COc1ccc(S(=O)(=O)N2CCN(Cc3nc4ccc(C)cc4o3)CC2)cc1Cl` the figure was inactive: 122%; with `CCC(C(=O)NCCc1ccccc1)n1nc(C)n2c(cc3sccc32)c1=O` (stereo not drawn), inactive: 77%; with `Cc1ccc(C)c(N2CCN(C(=O)c3cc4c(=O)n(Cc5ccccc5)ccc4nc3C)CC2)c1`, inactive: 78%.
In the case of `Cc1ccc2c(c1)N(C(=O)N1CCC(C(=O)NCCc3ccc(Cl)cc3)CC1)CC(C)O2` (stereo not drawn), the survival is inactive: 81%.
As to `Cc1ccc(-n2nc(C)c3c(C)c(CCC(=O)NCc4ccccc4Cl)c(C)nc32)cc1C`, the survival is inactive: 64%.
As for `CCOc1cccc2c1N[C@@H](c1ccc(C(=O)O)cc1)[C@H]1CC=C[C@@H]21`, the figure is inactive: 68%; as for `Cc1cccc(NS(=O)(=O)c2ccc3[nH]c4c(c3c2)CCCCCC4)c1`, inactive: 76%.
With `Cc1nc2sccn2c(=O)c1S(=O)(=O)Nc1cc(Cl)ccc1O` the figure was inactive: 51%; with `CCOC(=O)c1cc(-c2ccc(F)cc2)n(CC(=O)NC2CCCCCC2)c1C`, inactive: 76%.
With `CC1(C)CC(=O)C=C(NCCc2ccccc2)C1` the figure was inactive: 104%; with `Cc1ccc(CN(Cc2ccco2)C(=O)c2ccc(OCC(C)C)cc2)cc1`, inactive: 61%; with `COc1ccc(NC(=O)c2c(NC(=O)COc3ccccc3)sc3c2CCC(C(C)(C)C)C3)cc1` (stereo not drawn), inactive: 75%.
Regarding `C/C(=N/OC(=O)CSc1nc(-c2ccco2)cc(C(F)(F)F)n1)c1ccccc1`, the survival was inactive: 104%.
As for `CCCCN1CCc2nc(Nc3ccc(OC)cc3OC)ncc2C1`, the figure is inactive: 77%; as for `Cc1nn(-c2ccc(F)cc2)c(-n2cccc2)c1C(=O)NCCc1ccc(Cl)cc1`, inactive: 68%; as for `Cc1cc(C)n2nc(CNS(=O)(=O)c3ccc(C)c(C)c3)nc2n1`, inactive: 81%.
With `CC(C)OCCCn1c(SCC(=O)c2ccccc2)nc2c(sc3ccccc32)c1=O` the figure was inactive: 88%.
Turning to `O=C(C1CCN(S(=O)(=O)c2cccc3nonc23)CC1)N1CCN(c2cccc(Cl)c2)CC1`, the survival is inactive: 84%.
With `COc1ccc(NC(=O)CSc2nc3nc(C)c(Cc4ccccc4)c(C)n3n2)cc1OC` the figure was inactive: 67%.
Regarding `Cc1ccc(Cn2c(=O)c3ccccc3n3c(-c4cccc(O)c4)nnc23)cc1`, the survival is inactive: 82%.
As for `CCN(CC)CCOC(=O)c1ccc(NC(=O)Cn2ncc3c2-c2cc(C)ccc2OC3)cc1`, the figure is inactive: 68%; as for `Cc1cccc(Cn2cccc2CNS(=O)(=O)c2ccccc2F)c1`, active: -2%; as for `CCc1ccc(CNC(=O)Cn2nc(C)n3c(cc4cc(C)ccc43)c2=O)cc1`, inactive: 83%.
With `CCc1ccc(NC(=O)CN2C(=O)C(c3ccc(C)cc3)=NC23CCCCC3)cc1` the figure was inactive: 82%; with `COc1ccc(NC(=O)C(Cc2ccccc2)NS(=O)(=O)c2ccc3c(c2)CCC(=O)N3)c(OC)c1` (stereo not drawn), inactive: 106%.
As for `CCCCOc1ccc(C2=NC(c3ccncc3)=Nc3ccc(OCC)cc3N2)cc1`, the figure is inactive: 75%; as for `CCOc1ccccc1CNC(=O)C1CCN(c2nnc(-n3c(C)ccc3C)s2)CC1`, inactive: 97%; as for `CCOC(=O)c1cccc(NC(=O)c2cc3ccccn3n2)c1`, inactive: 124%.
Take `Cc1nonc1OCCNC(=O)C12CC3CC(CC(C3)C1)C2`: the survival is inactive: 84%.
As for `COc1ccc2sc(N(Cc3cccnc3)C(=O)C3CCCCC3)nc2c1`, the figure is inactive: 72%; as for `O=C(Cn1c(=O)n(CC2CCC(C(=O)NCCc3ccccc3)CC2)c(=O)c2ccccc21)Nc1ccccc1` (stereo not drawn), inactive: 107%; as for `COc1cccc(-n2c(SCC(=O)Nc3c(C)cc(C)cc3C)nc3c([nH]c4ccccc43)c2=O)c1`, inactive: 95%.
With `Cc1ccc(C(c2nnnn2CS(=O)(=O)c2ccc(C)cc2)N2CCCC2)cc1` (stereo not drawn) the figure was inactive: 98%; with `COC(=O)c1cc2oc3ccccc3c2n1CC(=O)Nc1ccc(Cl)cc1F`, inactive: 113%.
As for `O=C(Nc1ccccc1)N(C1=NCCCCS1)c1ccccc1`, the figure is inactive: 76%; as for `COc1cccc2c1cc1c(=O)n(CC(=O)NCc3ccc(C)o3)nc(C)n12`, inactive: 87%; as for `COc1cccc(CNC(=O)c2ccc(-c3nc(COc4ccccc4)c(C)o3)cc2)c1`, inactive: 89%.
On to `Cc1ccc(CCNC(=O)c2cc3c(s2)-c2c(C)cccc2OC3)cc1`, for which the survival is inactive: 93%.
Consider `O=C(Nc1sc2c(c1C(=O)NCc1cccnc1)CCCC2)c1cc(=O)c2ccccc2o1`, for which the survival was inactive: 63%.
As for `Cc1ccc2nc(COc3ccccc3NC(=O)C(C)(C)C)cc(=O)n2c1`, the figure is inactive: 102%.
For the compound `CCOc1ccc(C2CC(c3c(O)n(C4CCCCC4)c(=O)[nH]c3=O)=Nc3ccccc3S2)cc1` (stereo not drawn), the survival is inactive: 47%.
With `O=C(Cc1ccc(F)cc1)NCc1ccc2c(c1)CCN2C(=O)c1ccc(F)cc1` the figure was inactive: 74%; with `O=C(CSc1nnc2ccc3ccccc3n12)Nc1ccccc1Cl`, inactive: 76%; with `Cc1ccc(NS(=O)(=O)c2ccc(-n3cccn3)cc2)cc1Cl`, inactive: 84%.
With `CCOC(=O)N1CCc2c(sc3c2c(=O)n(-c2ccccc2C(F)(F)F)c(=O)n3Cc2ccccc2C)C1` the figure was inactive: 104%.
As for `CN1C(=O)/C(=C/C=C2/Sc3ccccc3N2CCO)SC1=S`, the figure is inactive: 108%; as for `CCC(=O)N1CCc2cc(S(=O)(=O)NC(CC(C)C)C(=O)NCCc3ccccc3)ccc21` (stereo not drawn), inactive: 121%.
Take `COc1ccc(CCNC(=O)C(=O)NCC(c2ccco2)S(=O)(=O)c2cccs2)cc1OC` (stereo not drawn): the survival was inactive: 89%.
As for `CCOC(=O)c1c(-c2ccccc2)oc2ccc(N(C(C)=O)S(=O)(=O)c3ccc(CC)cc3)cc12`, the figure is inactive: 69%; as for `O=C(c1nc(-c2ccc(Cl)cc2)n2c1CCCCC2)N1CCN(c2ccccc2)CC1`, inactive: 88%; as for `O=C(COc1ccccc1-c1nc(-c2ccccc2)no1)Nc1cccc([N+](=O)[O-])c1`, active: 34%.
With `Cc1cccc(-c2nc(CCNC(=O)Cc3ccccc3)cs2)c1` the figure was active: 17%; with `COc1ccc(CCNC(=O)c2ccc3c(c2)N(Cc2ccc(F)cc2)C(=O)CS3)cc1OC`, inactive: 117%; with `CCN(CC)S(=O)(=O)c1ccc(-c2nnc(SCC(=O)O)n2CC)cc1`, inactive: 77%.
In the case of `O=C(COc1ccc(Cl)cc1)Nc1ccc2nc(SCC(=O)N3CCCC3)sc2c1`, the survival was inactive: 67%.
As for `COc1ccc(OC)c(NC(=O)CSc2ccc(-c3sc(C)nc3C)nn2)c1`, the figure is inactive: 83%.
With `Cc1nn(C(=O)c2cccc(Cl)c2)c(C)c1S(=O)(=O)N1CCOCC1` the figure was inactive: 82%; with `CCn1c(=O)cc(SCC(=O)NCc2ccc(OC)cc2OC)c2ccccc21`, inactive: 66%; with `CCc1ccc(-n2nc(CO)c(C(=O)NCCCc3ccccc3)n2)cc1`, inactive: 95%.
With `Cc1ccc(C)c(S(=O)(=O)c2nnn3c2nc(NC2CCCCC2)c2sccc23)c1` the figure was inactive: 40%; with `Cc1ccccc1Cn1c2ccccc2c2cnn(CC(=O)NCc3ccccn3)c(=O)c21`, inactive: 66%; with `CCSc1ccccc1C(=O)Nc1ccc(-c2nc3ccccc3s2)c(O)c1`, inactive: 83%.
For `Cc1ccc(C)c(N2CCN(C(=O)NCc3noc4ccc(C)cc34)CC2)c1`, the survival is inactive: 64%.
As for `Cc1ccccc1OCC(=O)Nc1cccc(C(=O)OCc2cc(=O)n3c(C)csc3n2)c1`, the figure is inactive: 88%.
With `COCc1c(CSSCc2cnc(C)c(O)c2COC)cnc(C)c1O` the figure was inactive: 64%; with `CCOc1ccc(-c2c(C)nn3c(C)c(C(=O)NCCc4ccc(Cl)cc4)cnc23)cc1OCC`, inactive: 72%.
As for `COC(=O)c1ccccc1NC(=O)c1cc2cc(C)ccc2n1C`, the figure is inactive: 99%.
`O=C(CC1COc2ccccc2O1)NCCc1ccccc1` (stereo not drawn): the survival is inactive: 87%.
As for `O=C(Cn1c(=O)n(-c2ccc(Cl)cc2)c(=O)c2sc3ccccc3c21)NC1CCCC1`, the figure is inactive: 90%; as for `Cc1ccc(S(=O)(=O)Cc2ccc(C(=O)N3CCN(c4cccc(Cl)c4)CC3)o2)cc1`, inactive: 75%.
With `CCC1=Nc2cc(C(=O)NCCN(CC)CC)ccc2Sc2ccccc21` the figure was inactive: 120%; with `c1ccc(CN2CCN(c3ncnc4c3cnn4-c3ccccc3)CC2)cc1`, inactive: 69%; with `CCc1nc2cccnc2n1-c1ccc(CC(=O)Nc2cccc(C)c2C)cc1`, inactive: 81%.
With `CCc1cccc(NC(=O)C2CCC(CNS(=O)(=O)c3ccc(Br)s3)CC2)c1` (stereo not drawn) the figure was inactive: 79%; with `Cc1c(-n2c(O)c(C3=c4ccccc4=NC3=O)sc2=O)c(=O)n(-c2ccccc2)n1C`, inactive: 75%.
For `Cc1ccc(NC(=O)c2cc(S(=O)(=O)N3CCc4ccccc43)cn2C)c(Cl)c1`, the survival was inactive: 106%.
With `CCN(CC)CCCn1c(N)c(-c2nc3ccccc3[nH]2)c2nc(C#N)c(C#N)nc21` the figure was inactive: 85%; with `Cc1cccc(-n2ncc3c(Nc4ccc(C)c(Cl)c4)ncnc32)c1`, inactive: 124%; with `COc1ccc(NC(=O)c2c(-c3ccccc3)c(-c3ccccc3)nn(C)c2=O)cc1OC`, inactive: 53%.
With `Cc1ccccc1CNC(=O)CN1C(=O)C2CCCCN2c2ccc(C(=O)N3CCCC3)cc21` (stereo not drawn) the figure was inactive: 76%; with `CCc1nn(CC(=O)N2CCCCC2)c(=O)c2cc3sc(C)cc3n12`, inactive: 101%.
As for `Cc1ccc(C)c(Cn2c(=O)n(C(C)C)c(=O)c3oc4ccccc4c32)c1`, the figure is active: 51%; as for `COc1cccc(-n2c(CNC(=O)OC(C)(C)C)n[nH]c2=S)c1`, inactive: 82%; as for `O=C(Nc1ccc2c(c1)N(C1CCCC1)C(=O)c1ccccc1S2)c1ccccc1F`, inactive: 77%.
`CCOC(=O)c1cccc(NC(=O)C2Cc3ccccc3N2C(=O)c2ccccc2)c1` (stereo not drawn): the survival is inactive: 81%.
With `CCOc1ccc(C(=O)NC2CC(=O)N(c3ccc(C)cc3)C2)cc1OCC` (stereo not drawn) the figure was inactive: 101%; with `Cc1ccc(Nc2nc3ccccc3c3nncn23)c(Cl)c1`, inactive: 125%.
